From PubChem BioAssay AID445 (National Center for Advancing Translational Sciences (NCATS), 2006)
Screen size: about 110,000 compounds; about 40 (0.04%) were called active. Inconclusive results, whose numbers are uncertain, are shown with a selection of clear calls. Calls follow the shape of the dose curve; as a rule, active = well fitted curve in the direction sought with a large enough effect in the signal ratio (not every such curve was filed as active); inconclusive = small, poorly fitted or top-dose-only effect, or a change in a side signal; inactive = flat fitted curve, though single readings scatter; the % refers to the signal ratio. Where the call is inconclusive, the potency comes from a doubtful curve fit.

assay: IkB Signaling; settings: ABC-DLBCL IkBa-CBG/CBR dual luciferase ratio (green luciferase fused to IkBa over red control in OCI-Ly3 lymphoma cells), 4 h; IkBa stabilization activation: at 57.1 µM (top of the series), scaled: untreated 0%, proteasome inhibitor 100% unless noted;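 as to IkBa stabilization activation: 0% = basal untreated cells and 100% = reference inhibitor full response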
In short: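 In this assay, an IκBα–CBG68 fusion accumulates when IKK-driven degradation is blocked; native CBR normalizes for cell number. OCI-Ly3 cells were treated 4 h with compound and doxycycline, then green and red light read after Chroma-Glo addition.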
Potency is read from the fitted curve at half-maximal effect.

Structure (SMILES)	IkBa stabilization activation	Potency
CCN(CC)S(=O)(=O)c1ccc2oc(SCc3ccc(F)cc3)nc2c1	inconclusive: 6.95% [signal inhibitor]	
CCCOc1ccc(Oc2nc(NCC(C)C)nc(N3CCOCC3)n2)nn1	inconclusive: 7.16% [signal inhibitor]	
COc1ccccc1N1CCN(c2nc(-c3ccc(C)cc3)nc3ccccc23)CC1	inconclusive: -0.756% [signal inhibitor]	
COc1cccc(NC(=O)C2CCCN(S(=O)(=O)c3ccc4[nH]c(=O)ccc4c3)C2)c1 (configuration not stated)	inconclusive: 2.49% [signal inhibitor]	
CCCCn1c(=N)n(CC(O)COc2ccc(C)cc2)c2ccccc21 (configuration not stated)	inconclusive: 0.185% [signal inhibitor]	
O=C(Nc1ccc(OCc2cc(=O)n3c4c(sc3n2)CCCC4)cc1)c1ccccc1	inactive: -1.07%	
CC(C)Nc1ncnc2c1cnn2-c1ccc(Cl)cc1		inconclusive: 20 µM [signal inhibitor, partial curve]
COc1ccc(NC(=O)CN(c2ccc(C)cc2)S(=O)(=O)c2cccc3nonc23)cc1OC	inactive: -3.29%	
Cc1ccc(C(=O)Cn2c3c(sc2=N)CCCC3)cc1	inactive: -0.3%	
COC(=O)Cn1c(=O)c2c(nc3n2CCN3c2ccc(F)cc2)n(C)c1=O	inconclusive: 4.13% [signal inhibitor]	
CSc1ccc(CNC(=O)c2ccc(NC(=O)c3nsc4ccccc34)cc2)cc1		inconclusive: 10 µM [signal inhibitor, partial curve]
CCOC(=O)C1CCCN(Cc2nc(N)nc(Nc3ccc(Cl)cc3)n2)C1 (configuration not stated)	inconclusive: 2.32% [signal inhibitor]	
Nc1c(C(=O)Nc2ccccc2)nnn1Cc1ccc(F)cc1Cl	inactive: -2.47%	
COc1ccc(CNC(=O)c2ccc(=O)oc2)cc1OC	inconclusive: 1.6% [signal activator]	
O=C(CC1SC2=NCCN2C1=O)Nc1ccc(Cl)cc1 (configuration not stated)	inactive: -3.39%	
Cc1ccc(CNS(=O)(=O)c2ccc(-c3cc(C(F)(F)F)on3)s2)cc1	inactive: -4.13%	
COc1ccc(Cl)cc1NC(=O)Cn1c(=O)n(CCC(=O)NCc2ccc3c(c2)OCO3)c(=O)c2ccccc21	inactive: 15.5%	
CCOc1ccccc1C(=O)Nc1nc2c(s1)CC(C)CC2 (configuration not stated)	inconclusive: 7.56% [signal inhibitor]	
COc1cc(NC(=O)COCc2cc(-c3ccc(F)cc3)on2)cc(OC)c1OC	inconclusive: 0.521% [signal inhibitor]	
Cc1ccc(C(=O)Nc2ccncc2)o1	inactive: 1.22%	
COc1cc(-c2nnc(SCc3c(F)cccc3Cl)o2)cc(OC)c1OC	inconclusive: -1.36% [signal inhibitor]	
Cc1nn(C(C)(C)C)c(OC(=O)C(C)(C)C)c1Sc1ccccc1	inconclusive: 4.48% [signal inhibitor]	
Clc1ccc(OCc2nnc(SCc3nc4ccccc4[nH]3)n2Cc2ccco2)cc1	inconclusive: 9.47% [signal inhibitor]	
NCCSS(=O)(=O)CCN	inactive: 1.55% [at 11.4 µM, scaled: untreated 0%, proteasome inhibitor 100%]	

Structure (SMILES)	IkBa stabilization activation	Potency
Cc1ccsc1CN(C(=O)c1oc2cc(Br)ccc2c1C)C1CCS(=O)(=O)C1 (configuration not stated)	inconclusive: -0.882% [signal inhibitor]	
CN(C)CCCN(C(=O)c1ccc2c(c1)OCCO2)c1nc2ccccc2s1	inconclusive: 3.49% [signal inhibitor]	
COc1cccc(CNC(=O)CSc2c3c(nc4cc(Cl)ccc24)CCCC3)c1		inconclusive: 25.1 µM [signal inhibitor, single point]
O=C(Nc1cc(=O)c2ccccc2o1)N1CCOCC1	inactive: -3.16%	
CCc1cccc(NC2c3ccccc3C(=O)N2c2ccc(C)cn2)c1 (configuration not stated)	inconclusive: 4.88% [signal inhibitor]	
CCCOc1ccc(C2c3c(oc4cc(C)c(C)cc4c3=O)C(=O)N2CCCN(C)C)cc1OCC (configuration not stated)	inactive: -0.324%	
Cc1cccc2c(=O)cc(CSc3ccccc3NC(=O)c3cccc(F)c3)[nH]c12	inconclusive: -0.19% [signal inhibitor]	
COc1ccc(NC(=O)Cn2cnc3c(oc4ccccc43)c2=O)cc1OC	inconclusive: 2.41% [signal inhibitor]	
N#C/C(=C\c1ccc[nH]1)Sc1nc2ccccc2s1	inconclusive: -4.51% [signal inhibitor]	
CCCOc1c(Cl)cc(C(=O)N(Cc2cccc(OC)c2)C2CCS(=O)(=O)C2)cc1Cl (configuration not stated)	inconclusive: 1.25% [signal inhibitor]	
CCCn1c(SCc2ccccc2)nc2c1c(=O)[nH]c(=O)n2C	inactive: 4%	
CCOc1ccc(NC(=O)c2cnc(N3CCCCC3)c3ccccc23)cc1	inconclusive: 11.5% [signal inhibitor]	
CCOC(=O)c1c(-c2ccccc2)csc1NC(=O)c1cc(-c2ccc(F)cc2)on1		inconclusive: 15.8 µM [signal inhibitor]
N#Cc1cc2sc3nc4ccccc4n3c2cc1C#N	inactive: 0.237%	
CC(C)n1cnc(S(=O)(=O)N2CCCC(C(=O)NCc3ccccc3Cl)C2)c1 (configuration not stated)	inactive: -1.35%	
CN(c1ccccc1)S(=O)(=O)c1nnc(NC(=O)c2ccccc2)s1	inactive: -0.815%	
Cc1ccc2nc(NC(=O)CNS(=O)(=O)c3ccc(Br)s3)sc2c1	inconclusive: 7.69% [signal inhibitor]	
Cc1oc(-c2cccc(Cl)c2)nc1CN1CCC(C(=O)NCCCN2CCN(c3cccc(Cl)c3)CC2)CC1	inconclusive: -3.55% [signal inhibitor]	
COc1ccc(CCCc2nnc(SCC(=O)Nc3nccs3)n2C)cc1C	inconclusive: 2.88% [signal inhibitor]	
COc1ccc(-n2[nH]c(C)cc2=O)cc1	inactive: 1.25%	
NC(=O)c1ccsc1NC(=O)CSc1ccccc1F	inconclusive: 13.5% [signal inhibitor]	
CCCCNC(=O)c1[nH]c2ccccc2c1Sc1ccc(C)cc1	inconclusive: -1.55% [signal inhibitor]	
C[C@@H](CN1CCC(Cc2ccccc2)CC1)[C@H](O)c1ccc(O)cc1	inactive: -1.5%	
Cc1ccc(C2c3[nH]c4ccccc4c3CCN2C(=O)Nc2ccc(C)c(C)c2)cc1 (configuration not stated)	inconclusive: 2.47% [signal inhibitor]	

Structure (SMILES)	IkBa stabilization activation	Potency
Cc1ccc(S(=O)(=O)Nc2cccc(-c3ccc(N4CCCCC4)nn3)c2)s1	inactive: -1.43%	
O=C(NCCc1ccc(Cl)cc1)c1ccc(CSCc2ccccc2Cl)o1	inconclusive: 0.037% [signal inhibitor]	
Cc1ccc(NC(=O)C(=O)NCc2ccc(Cl)cc2)cc1	inconclusive: 9.59% [signal inhibitor]	
OCCN1CCN(C(=S)c2ccc(Cl)c(Cl)c2)CC1	inactive: -1.19%	
Cc1cc(=O)oc2c(N)c(O)ccc12	inactive: 0.0868%	
CCc1ccc2nc(N3CCC(C(=O)O)CC3)sc2c1		inconclusive: 31.6 µM [signal inhibitor, partial curve]
Cc1c(Cl)cccc1-n1c(CCC(=O)O)ccc1-c1cccs1	inconclusive: 14.3% [signal inhibitor]	
COc1ccc(Br)cc1CNC(=O)C(C)n1nc(C)n2c(cc3occc32)c1=O (configuration not stated)	inconclusive: 1.09% [signal inhibitor]	
CCCCN(CCCC)S(=O)(=O)c1ccc(OC)c2ncccc12	inconclusive: -3.08% [signal inhibitor]	
CCc1cccc(NC(=O)CN2C(=O)CCc3cc(S(=O)(=O)N4CCOCC4)ccc32)c1	inconclusive: 9.18% [signal inhibitor]	
COc1cc(/C=C\C(=O)CC(=O)/C=C\c2ccc(O)c(OC)c2)ccc1O	inactive: 14.9% [at 11.4 µM, scaled: untreated 0%, proteasome inhibitor 100%]	
Cc1ccc(CN2CCSc3ccc(C(=O)Nc4ccc(F)cc4F)cc32)cc1	inconclusive: 9.79% [signal inhibitor]	
COc1cccc2c1C(=O)c1c(O)c3c(c(O)c1C2=O)C[C@@](O)(C(=O)CO)C[C@H]3O[C@H]1C[C@@H](N)[C@H](O)[C@@H](C)O1.[W]	inconclusive: 2.69% [signal inhibitor] [at 11.4 µM, scaled: untreated 0%, proteasome inhibitor 100%]	
CCCCCCCCC/C=C/CC1CC(=O)OC1=O (configuration not stated)	inactive: 2.99%	
Cn1cc(S(=O)(=O)N2CCCCC2)cc1C(=O)N1CCN(c2ccc(F)cc2)CC1	inactive: 4.37%	
Cc1ccc2c(c1)c(=O)c(C(=O)c1ccncc1)cn2CC(=O)Nc1c(C)cccc1C	inactive: 0.357%	
Cc1sc2nc(CN(Cc3cccs3)C(=O)NC3CCCCC3)[nH]c(=O)c2c1C	inconclusive: -1.8% [signal inhibitor]	
Cc1ccc(C)c(S(=O)(=O)c2cnc(SCC(=O)Nc3ccc(F)cc3F)[nH]c2=O)c1	inconclusive: 3.56% [signal inhibitor]	
CCN(CC)CCNC(=O)C1CCCN(c2ncnc3onc(C)c23)C1 (configuration not stated)	inconclusive: -0.0422% [signal inhibitor]	
Cc1ccc(C)c(-c2csc(-c3c(N)c(C(=O)c4ccc5c(c4)OCO5)n4ccccc34)n2)c1	inconclusive: 4.71% [signal inhibitor]	
COc1ccc(CCNC(=O)Cn2nc(C)n3c(cc4occc43)c2=O)cc1OC	inactive: -1.1%	
Cc1cccc(NC(=O)Cn2c(=O)oc3cc(S(=O)(=O)NCc4ccccc4)ccc32)c1	inconclusive: -1.5% [signal inhibitor]	
Cc1ccc2nc(N(Cc3cccnc3)C(=O)C3CCCCC3)sc2c1		inconclusive: 3.98 µM [signal inhibitor]
COc1ccc(NC(c2ccc(F)cc2)c2nnc(-c3ccccc3Cl)o2)cc1Cl (configuration not stated)	inconclusive: 0.985% [signal inhibitor]	
